Experimental data reported in paper PMC4274898.
Read-outs that look alike come from different tables or passages of the source. These are yes or no findings as the source states them, for the method shown. Some results given as binding are weak or reduced against the parent protein; the word gives no strength.

Protein sequences, listed by entry. Tags and fused reporters are not part of them.
UniProt P93830: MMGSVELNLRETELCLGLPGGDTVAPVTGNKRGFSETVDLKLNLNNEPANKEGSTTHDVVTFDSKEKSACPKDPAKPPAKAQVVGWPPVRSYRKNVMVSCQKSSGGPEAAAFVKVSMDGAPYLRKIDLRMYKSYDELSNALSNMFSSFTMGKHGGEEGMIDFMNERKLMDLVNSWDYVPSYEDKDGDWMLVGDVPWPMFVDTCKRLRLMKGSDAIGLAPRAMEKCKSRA

T1: ARF1 (Arabidopsis thaliana) (UniProt Q8L7G0)
T1 sequence: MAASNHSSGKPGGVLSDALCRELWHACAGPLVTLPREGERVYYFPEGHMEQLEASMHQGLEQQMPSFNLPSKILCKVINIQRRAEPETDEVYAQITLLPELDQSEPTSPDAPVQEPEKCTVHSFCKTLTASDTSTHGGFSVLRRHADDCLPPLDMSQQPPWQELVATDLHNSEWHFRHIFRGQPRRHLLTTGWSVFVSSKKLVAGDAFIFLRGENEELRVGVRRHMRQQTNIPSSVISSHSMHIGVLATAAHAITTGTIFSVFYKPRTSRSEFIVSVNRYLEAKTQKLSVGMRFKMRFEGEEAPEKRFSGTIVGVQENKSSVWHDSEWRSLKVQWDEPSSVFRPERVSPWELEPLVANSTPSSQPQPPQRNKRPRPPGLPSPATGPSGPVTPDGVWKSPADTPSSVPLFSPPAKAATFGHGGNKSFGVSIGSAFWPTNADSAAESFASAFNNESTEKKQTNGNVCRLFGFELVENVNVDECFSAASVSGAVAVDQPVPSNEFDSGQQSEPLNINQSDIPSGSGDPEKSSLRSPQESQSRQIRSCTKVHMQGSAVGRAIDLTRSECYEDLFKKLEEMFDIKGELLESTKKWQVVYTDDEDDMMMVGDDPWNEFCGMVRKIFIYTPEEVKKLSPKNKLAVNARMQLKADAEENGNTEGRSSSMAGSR

T2: ARF18 (Arabidopsis thaliana) (UniProt Q9C5W9)
T2 sequence: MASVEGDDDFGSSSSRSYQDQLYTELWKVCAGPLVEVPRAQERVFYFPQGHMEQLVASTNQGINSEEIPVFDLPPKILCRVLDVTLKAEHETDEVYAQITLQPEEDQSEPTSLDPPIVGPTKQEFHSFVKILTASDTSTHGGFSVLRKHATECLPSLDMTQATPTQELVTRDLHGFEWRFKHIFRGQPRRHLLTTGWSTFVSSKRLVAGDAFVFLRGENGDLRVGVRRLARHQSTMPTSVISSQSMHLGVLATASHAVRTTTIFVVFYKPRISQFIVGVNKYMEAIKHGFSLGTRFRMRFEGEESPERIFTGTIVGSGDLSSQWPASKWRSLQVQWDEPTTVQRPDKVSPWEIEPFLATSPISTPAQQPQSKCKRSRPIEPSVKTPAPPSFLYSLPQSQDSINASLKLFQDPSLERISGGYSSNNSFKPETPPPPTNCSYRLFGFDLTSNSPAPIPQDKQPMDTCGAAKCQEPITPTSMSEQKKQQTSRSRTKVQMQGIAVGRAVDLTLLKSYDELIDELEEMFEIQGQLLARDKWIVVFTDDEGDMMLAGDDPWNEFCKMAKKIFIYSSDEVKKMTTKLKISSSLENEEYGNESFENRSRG

T3: ARF2 (Arabidopsis thaliana) (UniProt Q94JM3)
T3 sequence: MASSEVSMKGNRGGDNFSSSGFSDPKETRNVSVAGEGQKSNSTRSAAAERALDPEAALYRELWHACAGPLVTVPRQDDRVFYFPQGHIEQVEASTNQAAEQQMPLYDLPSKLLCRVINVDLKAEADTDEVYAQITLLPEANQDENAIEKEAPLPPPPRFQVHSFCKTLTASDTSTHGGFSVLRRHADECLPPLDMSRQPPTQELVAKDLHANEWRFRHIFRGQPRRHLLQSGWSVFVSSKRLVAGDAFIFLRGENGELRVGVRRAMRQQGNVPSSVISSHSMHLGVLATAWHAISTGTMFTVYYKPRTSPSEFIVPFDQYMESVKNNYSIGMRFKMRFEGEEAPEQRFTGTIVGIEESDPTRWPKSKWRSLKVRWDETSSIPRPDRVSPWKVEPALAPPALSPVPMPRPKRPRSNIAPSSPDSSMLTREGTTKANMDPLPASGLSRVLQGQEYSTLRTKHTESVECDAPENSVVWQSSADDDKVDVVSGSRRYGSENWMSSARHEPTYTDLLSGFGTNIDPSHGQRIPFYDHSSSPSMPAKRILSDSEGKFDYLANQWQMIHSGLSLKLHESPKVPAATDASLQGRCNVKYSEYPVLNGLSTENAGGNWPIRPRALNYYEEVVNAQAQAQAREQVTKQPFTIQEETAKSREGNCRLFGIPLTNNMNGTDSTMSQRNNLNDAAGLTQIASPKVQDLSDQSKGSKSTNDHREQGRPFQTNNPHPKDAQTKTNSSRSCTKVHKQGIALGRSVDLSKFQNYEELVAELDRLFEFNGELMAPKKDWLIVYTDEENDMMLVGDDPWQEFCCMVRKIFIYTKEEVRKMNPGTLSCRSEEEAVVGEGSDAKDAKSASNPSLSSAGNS


Columns and labels:
Experiment in all cases: two-hybrid; S. cerevisiae AH109 co-transformed with pGBKT7-ARF (bait) and pGADT7-Aux/IAA (prey); growth on SD/-Ade-His-Leu-Trp against SD/-Leu/-Trp; at least 10 independent colonies; serial dilutions for strength
[1] = biological target: T1, ARF1 (Arabidopsis thaliana)
[2] = biological target: T1, ARF1 (Arabidopsis thaliana); remark: listed apart in the source
[3] = biological target: T2, ARF18 (Arabidopsis thaliana)
[4] = biological target: T3, ARF2 (Arabidopsis thaliana)

Row | Molecule | binding [1] | binding [2] | binding [3] | binding [4]
1 | Aux/IAA17 (from UniProt P93830 1-229) | binds |  |  | 
2 | Aux/IAA6 (protein, UniProt Q38824 1-189) MAKEGLALEITELRLGLPGDNYSEISVCGSSKKKKRVLSDMMTSSALDTENENSVVSSVEDESLPVVKSQAVGWPPVCSYRRKKNNEEASKAIGYVKVSMDGVPYMRKIDLGSSNSYINLVTVLENLFGCLGIGVAKEGKKCEYIIIYEDKDRDWMLVGDVPWQMFKESCKRLRIVKRSDATGFGLQQD |  |  |  | no binding
3 | Aux/IAA5 (protein, UniProt P33078 1-163) MANESNNLGLEITELRLGLPGDIVVSGESISGKKRASPEVEIDLKCEPAKKSQVVGWPPVCSYRRKNSLERTKSSYVKVSVDGAAFLRKIDLEMYKCYQDLASALQILFGCYINFDDTLKESECVPIYEDKDGDWMLAGDVPWEMFLGSCKRLRIMKRSCNRG |  |  |  | no binding

Results, then the molecule that gave them:

Row | binding [1] | binding [2] | binding [3] | binding [4] | Molecule
4 |  | binds | binds |  | Aux/IAA32 (protein, UniProt Q8RYC6 1-191) MDPNTPADFFKGSSKFHTYYSQTKKGGGVIDLGLSLRTIQHETYLPPARMIGLDGYGELIDWSQPSYNSITQLKSEDTGHQRLAQGYYNNEGESRGKYAYVKVNLDGLVVGRKVCLVDQGAYATLALQLNDMFGMQTVSGLRLFQTESEFSLVYRDREGIWRNVGDVPWKEFVESVDRMRIARRNDALLPF
5 |  | binds | binds |  | Aux/IAA34 (protein, UniProt Q9C5X0 1-185) MYCSDPPHPLHLVASDKQQKDHKLILSWKKPTMDSDPLGVFPNSPKYHPYYSQTTEFGGVIDLGLSLRTIQHEIYHSSGQRYCSNEGYRRKWGYVKVTMDGLVVGRKVCVLDHGSYSTLAHQLEDMFGMQSVSGLRLFQMESEFCLVYRDEEGLWRNAGDVPWNEFIESVERLRITRRNDAVLPF
